Measured values: the supplement of paper PMC4466236
Whole data set: some 33,000 sequences, median “E-score (dimensionless, -0.5 to 0.5)” near -0.058, cut for the highest 2% near 0.35. This is one part of the list.

test system: MvaT; experiment: PBM 8-mer E-score (mean of HK and ME arrays) (E-score (dimensionless, -0.5 to 0.5)); higher = stronger relative binding preference; most listed sequences are background and not binding sites
Method: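 Protein binding microarray: GST-tagged full-length MvaT (P. aeruginosa PAO1) bound to two universal double-stranded 60-mer arrays (ME and HK), each with a constant 25-mer primer and a variable 35-mer region covering all 8-mers. The 8-mer E-score (rank-based, range -0.5 to 0.5, >0.45 = specific binding) is the mean of the two arrays.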

First: AGAGTGAT
Second: CGCGGCGA
The “PBM 8-mer E-score” value of the first is higher: 0.0601 for the first, -0.271 for the second.

First: AACGGACG
Second: ATGTTCTC
The “PBM 8-mer E-score” value of the first is lower: -0.165 for the first, 0.093 for the second.

Compared with CTACTTTC, AGCCGGGA is lower in “PBM 8-mer E-score” value: -0.0258 for the first, -0.224 for the second.

Going from ATGTCAGC to ACGGTTCT, the “PBM 8-mer E-score” value falls from -0.039 to -0.104.

Going from GTGTGCGA to CGGTCGAC, the “PBM 8-mer E-score” value falls from 0.0377 to -0.295.

Compared with GTTGAGGA, AAAATAAA is higher in “PBM 8-mer E-score” value: -0.181 for the first, 0.409 for the second.

First: CCGCATTA
Second: ATACCCTC
The “PBM 8-mer E-score” value of the first is higher: -0.0627 for the first, -0.12 for the second.

Compared with ATCGAGTA, AGTTATGA is higher in “PBM 8-mer E-score” value: 0.00286 for the first, 0.319 for the second.

Going from CTTTGTGC to TCCACTCA, the “PBM 8-mer E-score” value rises from -0.143 to -0.0806.

Compared with CGGCGAAC, ATTCAAAA is higher in “PBM 8-mer E-score” value: -0.132 for the first, 0.252 for the second.

Going from TGATGCCA to CGGTTGTA, the “PBM 8-mer E-score” value rises from -0.236 to 0.0957.

Going from AAGGGTTG to ACTAGTCA, the “PBM 8-mer E-score” value rises from -0.1 to 0.0987.

Compared with CTCGCATA, ATACAGAT is higher in “PBM 8-mer E-score” value: 0.0368 for the first, 0.0944 for the second.

First: AAATATCA
Second: CCCGATAC
The “PBM 8-mer E-score” value of the first is higher: 0.304 for the first, -0.162 for the second.

First: GTGCCAAA
Second: AAGTTACC
The “PBM 8-mer E-score” value of the first is lower: -0.102 for the first, 0.149 for the second.

Going from CCGGCCCA to CTACGAAC, the “PBM 8-mer E-score” value falls from -0.132 to -0.141.

First: TCTGAACA
Second: GAAACGTC
The “PBM 8-mer E-score” value of the first is higher: 0.0206 for the first, -0.204 for the second.

Compared with ATGGTCTA, CCAATAGG is lower in “PBM 8-mer E-score” value: -0.147 for the first, -0.195 for the second.

First: CTATTAGA
Second: CGGGGTGC
The “PBM 8-mer E-score” value of the first is higher: 0.208 for the first, -0.246 for the second.

Compared with AAACTGCT, CCTGCTTA is lower in “PBM 8-mer E-score” value: 0.0621 for the first, -0.0256 for the second.

Going from CTGCTGTA to GAGATGTA, the “PBM 8-mer E-score” value rises from 0.0204 to 0.14.

Compared with GAAGAAGA, ATCCCCTC is lower in “PBM 8-mer E-score” value: -0.164 for the first, -0.255 for the second.

Compared with CGTACGAA, CTTGTTAA is higher in “PBM 8-mer E-score” value: 0.0643 for the first, 0.232 for the second.

Going from AACTGCCT to AAACTGTC, the “PBM 8-mer E-score” value rises from -0.0484 to 0.0337.

Compared with CTCTTCAA, ACGAACTA is higher in “PBM 8-mer E-score” value: -0.0688 for the first, 0.146 for the second.

First: TCGGTCCA
Second: GTACTGTA
The “PBM 8-mer E-score” value of the first is lower: -0.0143 for the first, 0.157 for the second.

Going from ATGGCGAC to ACTAATAG, the “PBM 8-mer E-score” value rises from -0.142 to 0.199.

Compared with AAACTGAC, GATTTTCC is lower in “PBM 8-mer E-score” value: 0.083 for the first, 0.0494 for the second.

Compared with AAACACAG, CCCGTTAC is lower in “PBM 8-mer E-score” value: 0.108 for the first, -0.113 for the second.

First: TCGTCAAA
Second: AAGCTCCG
The “PBM 8-mer E-score” value of the first is higher: 0.0365 for the first, -0.128 for the second.

Compared with AGCGAAGA, CTACGGTA is higher in “PBM 8-mer E-score” value: -0.0675 for the first, 0.0649 for the second.

Compared with AATTTGGA, CAAAGTAA is higher in “PBM 8-mer E-score” value: 0.0151 for the first, 0.216 for the second.

Going from ACTTCAAA to ACCCTTCG, the “PBM 8-mer E-score” value falls from 0.251 to -0.302.

Compared with CCATCCGG, CGATATAA is higher in “PBM 8-mer E-score” value: -0.306 for the first, 0.395 for the second.

Compared with AGAATTGG, CCGGAAAA is higher in “PBM 8-mer E-score” value: -0.0665 for the first, -0.0324 for the second.

Compared with ACCAATGC, GTAGGCAC is higher in “PBM 8-mer E-score” value: -0.226 for the first, -0.224 for the second.

Going from CTACACAG to AACGATTC, the “PBM 8-mer E-score” value falls from -0.0757 to -0.111.

Going from ACTTTCGG to CAAGTCGG, the “PBM 8-mer E-score” value falls from 0.0277 to -0.0948.

Going from CCGTAACA to CGGCTGGC, the “PBM 8-mer E-score” value falls from -0.0477 to -0.234.

Compared with AGCATTTG, AAAGAAGG is lower in “PBM 8-mer E-score” value: 0.00649 for the first, -0.154 for the second.

First: GCGAAAGC
Second: AGTACAGG
The “PBM 8-mer E-score” value of the first is lower: -0.161 for the first, 0.0418 for the second.

Compared with ATAATGTC, AATCAAGT is lower in “PBM 8-mer E-score” value: 0.337 for the first, 0.137 for the second.

First: AACTATGT
Second: ACTAGAAT
The “PBM 8-mer E-score” value of the first is higher: 0.258 for the first, 0.144 for the second.

Going from CCGGGGAG to ACCAGGGA, the “PBM 8-mer E-score” value rises from -0.245 to -0.192.

Going from ACTTCCAA to ATGCACAT, the “PBM 8-mer E-score” value falls from 0.193 to 0.11.

First: ATTTGTCA
Second: ATGTAAGA
The “PBM 8-mer E-score” value of the first is higher: 0.185 for the first, 0.175 for the second.

First: ACACGACG
Second: GTGACTCA
The “PBM 8-mer E-score” value of the first is higher: -0.192 for the first, -0.217 for the second.

First: ACCACCTG
Second: GCAGTCAC
The “PBM 8-mer E-score” value of the first is lower: -0.22 for the first, -0.0976 for the second.

First: CAAACCGC
Second: ACGCGCAA
The “PBM 8-mer E-score” value of the first is lower: -0.204 for the first, 0.228 for the second.

Going from AAGGGCTC to CACTCATA, the “PBM 8-mer E-score” value rises from -0.239 to 0.0409.

Going from CGATGCCA to AATTGTTG, the “PBM 8-mer E-score” value rises from -0.192 to 0.232.

First: GATAAAGA
Second: ACAGATTG
The “PBM 8-mer E-score” value of the first is higher: 0.271 for the first, -0.0531 for the second.

First: CGACCGGA
Second: GTGGAAGA
The “PBM 8-mer E-score” value of the first is lower: -0.15 for the first, -0.0251 for the second.

First: CTAGGTGC
Second: CGGCCGAC
The “PBM 8-mer E-score” value of the first is higher: -0.0635 for the first, -0.135 for the second.

First: ACAGAGAA
Second: ACTGGCGG
The “PBM 8-mer E-score” value of the first is higher: 0.0708 for the first, 0.0267 for the second.

Going from GTAAGTCA to TATTGAGA, the “PBM 8-mer E-score” value rises from 0.125 to 0.224.

Compared with CCTTTAAG, ACCGGCGG is lower in “PBM 8-mer E-score” value: -0.0641 for the first, -0.0906 for the second.

Compared with ACGCCCGA, CGAAAAAG is higher in “PBM 8-mer E-score” value: -0.00671 for the first, 0.0951 for the second.

Compared with GCATCAAC, AAAATTTA is higher in “PBM 8-mer E-score” value: -0.0551 for the first, 0.311 for the second.

First: CCTGTAAG
Second: ACTTCCCA
The “PBM 8-mer E-score” value of the first is lower: -0.0994 for the first, -0.000597 for the second.

Going from CCGGATAG to AATGCAGC, the “PBM 8-mer E-score” value rises from -0.131 to 0.0155.

First: GGGGCATA
Second: ACCAAAAG
The “PBM 8-mer E-score” value of the first is lower: -0.105 for the first, -0.0953 for the second.

Compared with AGGCTGCG, CCTGGGCC is lower in “PBM 8-mer E-score” value: -0.189 for the first, -0.238 for the second.

Going from TAATTTCA to ACCGAGTG, the “PBM 8-mer E-score” value falls from 0.323 to -0.0732.

Going from TCATAAGA to CGCGGTAC, the “PBM 8-mer E-score” value falls from 0.0931 to -0.165.

TACATCCA and AGTATTCA are the same in “PBM 8-mer E-score” value: 0.203 for the first, 0.203 for the second.

Compared with TCATCCCA, GACTCTAA is higher in “PBM 8-mer E-score” value: -0.103 for the first, 0.049 for the second.

First: CCAGTAAA
Second: TAGTTGGA
The “PBM 8-mer E-score” value of the first is lower: 0.0684 for the first, 0.0717 for the second.

First: TCGGCTAA
Second: AGACGGTA
The “PBM 8-mer E-score” value of the first is higher: 0.00806 for the first, -0.203 for the second.

First: AGAATGAA
Second: ACTCGAGT
The “PBM 8-mer E-score” value of the first is higher: 0.0569 for the first, -0.14 for the second.

First: CACCCAGC
Second: GCTCAGAC
The “PBM 8-mer E-score” value of the first is higher: -0.0519 for the first, -0.291 for the second.

Compared with AACCCGTT, AATTGGGG is lower in “PBM 8-mer E-score” value: 0.0662 for the first, 0.0515 for the second.

First: AGGCAGCC
Second: AAAACGGG
The “PBM 8-mer E-score” value of the first is lower: -0.258 for the first, -0.0606 for the second.

Compared with CGCCTCCC, GAAGCTCA is higher in “PBM 8-mer E-score” value: -0.293 for the first, -0.168 for the second.

Going from CAAGAGCA to ATCCACCA, the “PBM 8-mer E-score” value rises from -0.156 to -0.0254.

Going from CCACGCAA to CTTGCTTA, the “PBM 8-mer E-score” value rises from -0.137 to 0.11.

Compared with ACGCGCAC, GAAGAGCA is lower in “PBM 8-mer E-score” value: -0.00656 for the first, -0.08 for the second.

Compared with AACACATA, GTGCCTGA is lower in “PBM 8-mer E-score” value: 0.262 for the first, -0.013 for the second.

Going from TCAACAAA to TACACCGA, the “PBM 8-mer E-score” value falls from 0.271 to -0.00705.

First: ATATGCCA
Second: AACCCGGT
The “PBM 8-mer E-score” value of the first is higher: 0.181 for the first, -0.215 for the second.

Going from GAAAAGGC to AAACGATG, the “PBM 8-mer E-score” value rises from -0.0698 to -0.00663.

Compared with TAGCTGCA, ATATGGGC is higher in “PBM 8-mer E-score” value: -0.0239 for the first, 0.0167 for the second.

Going from ACAACGGT to ACACGGTA, the “PBM 8-mer E-score” value rises from -0.14 to -0.0803.

Compared with AAAGAGAT, TACAGATA is higher in “PBM 8-mer E-score” value: 0.143 for the first, 0.184 for the second.

Going from AATCCTGC to CCACCGAC, the “PBM 8-mer E-score” value falls from -0.0553 to -0.163.

Going from ATAGGGGA to GGCCGTGA, the “PBM 8-mer E-score” value falls from -0.161 to -0.233.
